{"source": "PubChem BioAssay AID624296", "about": "(National Center for Advancing Translational Sciences (NCATS), 2012)", "note": "The campaign covered roughly 350,000 compounds. About 9,900 (2.8%) were called active. The inconclusive results got no clear call from the source; some entries with a clear call stand among them for comparison. The call rests on the fitted dose curve; in most records, active means well fitted activation curve with a large enough effect; inconclusive means small, poorly fitted or top-dose-only effect; inactive means no such curve, though single readings can be large or run the other way. Potencies of inconclusive entries are left out as doubtful fits. Potency means the concentration at half of the fitted maximal effect; tags describe the fitted curve by direction and shape.", "data": [{"experiment": "A quantitative high throughput screen for small molecules that induce DNA re-replication in MCF 10a normal breast cells; further: nearly all actives have a fitted effect of over 50% in size; on activity, positive = re-replication: % of control where 0% means no effect.", "conditions": "MCF 10A DNA re-replication, Hoechst nuclear intensity, 48 h; activity, positive = re-replication: at 46.1 µM (top of the series)", "values": [{"smiles": "CCc1ccc(Nc2nnc(SCC(=O)c3c(N)n(C4CC4)c(=O)[nH]c3=O)s2)cc1", "Potency": "inconclusive [activator, single point]"}, {"smiles": "O=C(Nc1ccc2nc(-c3ccco3)c(-c3ccco3)nc2c1)N1CCN(c2ccccn2)CC1", "Potency": "inconclusive [activator, single point]"}, {"smiles": "Cc1ccc(CN2CCN(Cc3nc4c(s3)CCCC4)CC2CCO)cc1", "note": "(centres undefined)", "Potency": "inconclusive [activator, single point]"}, {"smiles": "COc1ccc(C2/C(=C(\\O)c3ccc4c(c3)OCCO4)C(=O)C(=O)N2CCCN(C)C)c(OC)c1", "note": "(centres undefined)", "Potency": "inconclusive [activator, single point]"}, {"smiles": "CCCNC(=O)c1ccc(S(=O)(=O)c2ccc(OC)cc2)c([N+](=O)[O-])c1", "Potency": "inconclusive [activator, single point]"}, {"smiles": "CCCc1c(C(=O)Nc2ccc(C(F)(F)F)cc2)cnn1-c1ccccc1", "activity, positive = re-replication": "inactive: 26.3%"}, {"smiles": "COCCn1c(SCC(=O)Nc2ccc3[nH]c(=O)[nH]c3c2)nc2ccccc2c1=O", "activity, positive = re-replication": "inactive: 1.4%"}, {"smiles": "CCc1[nH]nc(C(=O)N2CCCC(CCC(=O)N3CCN(c4ccccn4)CC3)C2)c1C", "note": "(centres undefined)", "Potency": "inconclusive [activator, single point]"}, {"smiles": "Cc1cc(C(=O)N/N=C/C=C/c2ccccc2[N+](=O)[O-])c(C)o1", "activity, positive = re-replication": "inactive: -2.45%"}, {"smiles": "COc1ccc(NC(=O)NCc2ccco2)c(OC)c1", "activity, positive = re-replication": "inactive: 2.99%"}, {"smiles": "COc1ccc(-c2cc(=O)n(-c3ccc([N+](=O)[O-])cc3)[nH]2)cc1", "Potency": "active: 16.4 µM"}, {"smiles": "COc1ccc(-c2ccc3oc(-c4ccc(OC)cc4)c(C#CC4(O)CCCCC4)c3c2)cc1", "Potency": "inconclusive [activator, single point]"}, {"smiles": "COc1ccc(CN2C(=O)CCC2(C)C(=O)NC2CCCC2)c(OC)c1", "note": "(centres undefined)", "Potency": "inconclusive [activator, partial curve, poor fit]"}, {"smiles": "Clc1cccc(-c2nnc(SCc3nc4ccccc4[nH]3)n2Cc2ccco2)c1", "Potency": "inconclusive [activator, partial curve, poor fit]"}, {"smiles": "Cc1cccc(C(=O)O/N=C(\\N)c2cccc([N+](=O)[O-])c2)c1", "activity, positive = re-replication": "inactive: -4.91%"}, {"smiles": "CCOC(=O)N/C(N)=N/c1nc2ccccc2s1", "activity, positive = re-replication": "inactive: -3.18%"}, {"smiles": "CCc1ccc(N(CC(=O)O)S(=O)(=O)c2c(C)noc2C)cc1", "Potency": "inconclusive [activator, full curve, poor fit]"}, {"smiles": "c1cc2c3c(cccc3c1)NN=N2", "activity, positive = re-replication": "inactive: 3.15%"}, {"smiles": "O=C(NNS(=O)(=O)c1ccc([N+](=O)[O-])cc1)C(=O)Nc1cccc(C(=O)O)c1", "Potency": "inconclusive [activator, full curve, poor fit]"}, {"smiles": "CCCc1ccc(OCC(O)CN2CCN(c3ccccc3)CC2)cc1", "note": "(centres undefined)", "Potency": "inconclusive [activator, single point]"}, {"smiles": "Cc1ccc(-n2c(O)c(/C=N/Nc3ccc(S(=O)(=O)N4CCOCC4)cc3[N+](=O)[O-])c3ccccc3c2=O)c(C)c1", "Potency": "inconclusive [activator, single point]"}, {"smiles": "CN1C(=O)NC(c2ccccc2)C2=C1CN(c1cccc(C(F)(F)F)c1)C2=O", "note": "(centres undefined)", "Potency": "inconclusive [activator, partial curve, poor fit]"}, {"smiles": "Cc1c2c(nc3ccccc13)CCC(C(C)(C)C)C2", "note": "(centres undefined)", "Potency": "inconclusive [activator, single point]"}, {"smiles": "CC(=O)c1ccc(S(=O)(=O)NCCC(=O)N2CCN(c3ccccn3)CC2)cc1", "activity, positive = re-replication": "inactive: -6.67%"}, {"smiles": "Cc1ccc(CN(Cc2ccco2)S(=O)(=O)c2ccc(S(=O)(=O)NCC3CCCO3)cc2)cc1", "note": "(centres undefined)", "Potency": "inconclusive [activator, full curve]"}, {"smiles": "Cc1ccc(CNC(=O)C2CCCN(S(=O)(=O)N3CC(C)CC(C)C3)C2)cc1", "note": "(centres undefined)", "activity, positive = re-replication": "inactive: 3.58%"}, {"smiles": "COc1ccc(C=O)c2[nH]c3c(Cl)ncnc3c12", "Potency": "inconclusive [activator, single point]"}, {"smiles": "O=C(Nc1nc(-c2ccccc2)c(-c2ccccc2)o1)c1ccc(F)cc1", "Potency": "inconclusive [activator, single point]"}, {"smiles": "Cc1csc(NC(=O)CSc2nsc(SCC(=O)Nc3nc(C)cs3)c2C#N)n1", "Potency": "inconclusive [activator, partial curve, poor fit]"}, {"smiles": "CC(C)(C)c1ccc(C(=O)c2c[nH]c(C(=O)NCCCn3ccnc3)c2)cc1", "Potency": "inconclusive [activator, single point]"}, {"smiles": "Cc1cccc(NC(=O)CCC(=O)N/N=C/c2ccc(O)cc2O)c1", "Potency": "inconclusive [activator, full curve]"}, {"smiles": "CN(O)/C=C1\\C(=O)Nc2ccccc21", "activity, positive = re-replication": "inactive: -14.2%"}, {"smiles": "COc1c(C)cc(S(=O)(=O)NCc2ccco2)c(C)c1C", "activity, positive = re-replication": "inactive: -0.476%"}, {"smiles": "O=C(CCC(=O)N/N=C/c1ccccc1O)NCc1ccccc1", "Potency": "inconclusive [activator, partial curve, poor fit]"}, {"smiles": "O=C(O)c1cccc(NC(=O)c2ccccc2NC(=O)c2ccccc2F)c1", "Potency": "inconclusive [activator, single point]"}, {"smiles": "COc1ccc(OC)c(/C=N/NC(=O)c2cc3c(OC)c(OC)ccc3[nH]2)c1", "Potency": "inconclusive [activator, partial curve, poor fit]"}, {"smiles": "COc1ccc(/C=C2\\CCc3ccccc3C2=O)cc1Cn1cccn1", "Potency": "inconclusive [activator, single point]"}, {"smiles": "CC(Oc1ccccc1)C(=O)Nc1nnc(S(=O)(=O)Nc2ccccc2)s1", "note": "(centres undefined)", "activity, positive = re-replication": "inactive: -12%"}, {"smiles": "CCOc1ccc(Br)cc1/C=N/NC(=O)c1ccncc1", "Potency": "inconclusive [activator, single point]"}, {"smiles": "CCCCn1c(SCc2ccc(Cl)cc2)nc2c1c(=O)[nH]c(=O)n2C", "Potency": "inconclusive [activator, partial curve, poor fit]"}, {"smiles": "COC(=O)c1cc(S(=O)(=O)N2CCN(Cc3ccccc3)CC2)cn1C", "activity, positive = re-replication": "inactive: 2.79%"}, {"smiles": "O=C(Nc1ccc(Cc2ccncc2)cc1)c1ccc(S(=O)(=O)N2CCOCC2)cc1", "activity, positive = re-replication": "inactive: -0.946%"}, {"smiles": "S=c1nc[nH]c2c1ncn2-c1ccc(Cl)cc1", "activity, positive = re-replication": "inactive: -1.08%"}, {"smiles": "CCOC(=O)Cc1csc(NC(=O)CSc2nnc(-c3ccc(F)cc3)o2)n1", "Potency": "inconclusive [activator, single point]"}, {"smiles": "O=S(=O)(Nc1cccc(S(=O)(=O)N2CCCC2)c1)c1cccs1", "activity, positive = re-replication": "inactive: 0.0524%"}, {"smiles": "COC(=O)c1cc(OC)c(OC)cc1NC(=O)CN1C(=O)c2ccccc2C1=O", "Potency": "inconclusive [activator, partial curve, poor fit]"}, {"smiles": "Cc1cc(=O)[nH]c(SCCCOc2ccc3c(c2)CCC3)n1", "Potency": "inconclusive [activator, single point]"}, {"smiles": "O=C(COC(=O)c1ccccc1-c1ccccc1[N+](=O)[O-])c1ccccc1", "activity, positive = re-replication": "inactive: -7.14%"}, {"smiles": "CCOC(=O)N1CCC(NC(=O)C2CCCN(Cc3nc(-c4cccc(Cl)c4)oc3C)C2)CC1", "note": "(centres undefined)", "activity, positive = re-replication": "inactive: 2.03%"}, {"smiles": "Cc1ccc(-n2c(O)c(/C=N/c3ncn[nH]3)c3ccccc3c2=O)cc1", "Potency": "inconclusive [activator, single point]"}, {"smiles": "CCOC(=O)c1c(NC(=O)CN2CCN(C)CC2)sc(C(=O)Nc2ccccc2)c1C", "activity, positive = re-replication": "inactive: 21.4%"}, {"smiles": "COc1cccc(-c2nc(NCc3ccco3)c3ccccc3n2)c1O", "Potency": "inconclusive [activator, single point]"}, {"smiles": "O=C1/C(=C/c2ccccn2)COc2ccccc21", "Potency": "inconclusive [activator, single point]"}, {"smiles": "Cc1cc(C)c2c(NC(=S)NC(=O)c3ccccc3)n[nH]c2n1", "Potency": "inconclusive [activator, full curve, poor fit]"}, {"smiles": "O=C(NCC(c1ccco1)N1CCCC1)c1ccc(Cl)c(S(=O)(=O)N2CCc3ccccc32)c1", "note": "(centres undefined)", "Potency": "inconclusive [activator, partial curve, poor fit]"}, {"smiles": "Cc1ccc(-c2nc3c(Cl)cc(Cl)cc3c(=O)n2O)cc1", "Potency": "inconclusive [activator, single point]"}, {"smiles": "Cc1cccc(NC(=S)N(CCN2CCOCC2)Cc2cc3cc4c(cc3[nH]c2=O)OCO4)c1", "activity, positive = re-replication": "inactive: 2.97%"}, {"smiles": "Cc1ccc(C2C(C#N)=C(N)Oc3c2c(=O)n(C)c(=O)n3C)cc1", "note": "(centres undefined)", "activity, positive = re-replication": "inactive: 0.668%"}, {"smiles": "COc1ccc(NC(=O)/C=C/C(=O)O)c(OC)c1", "Potency": "inconclusive [activator, single point]"}, {"smiles": "CCO/N=C(/C)c1c(O)cc(-c2ccccc2)n(-c2ccccc2)c1=O", "Potency": "active: 14.6 µM"}, {"smiles": "COc1ccc(CN2CCC(n3nccc3NC(=O)c3cccc(F)c3)CC2)cc1O", "activity, positive = re-replication": "inactive: 1.74%"}, {"smiles": "Cc1cccn2c(=O)c3cc(C(=O)NC(C)c4ccccc4)c(=N)n(CCCn4ccnc4)c3nc12", "note": "(centres undefined)", "Potency": "active: 20.6 µM"}, {"smiles": "CCSc1nc2c(c(=O)[nH]1)C(c1ccccn1)C1=C(CC(C)(C)CC1=O)N2", "note": "(centres undefined)", "Potency": "inconclusive [activator, partial curve, poor fit]"}, {"smiles": "COc1ccc(C(=O)N(C)C2CCCN(Cc3ccccc3F)C2)cc1C", "note": "(centres undefined)", "activity, positive = re-replication": "inactive: 11.5%"}, {"smiles": "COc1ccc(N(CC(=O)Nc2ccccc2OC)S(=O)(=O)c2ccc(NC(C)=O)cc2)cc1", "Potency": "active: 13 µM"}, {"smiles": "O=C1NC(=NCc2ccccc2)S/C1=C/c1ccc(O)cc1", "Potency": "inconclusive [activator, single point]"}, {"smiles": "CCOC(=O)c1c(NC(=O)c2ccccc2)sc2c(O)c(CN(CC)CC)ccc12", "Potency": "inconclusive [activator, single point]"}, {"smiles": "COc1ccc(NC(=O)CCNS(=O)(=O)c2cccc3nonc23)cc1", "activity, positive = re-replication": "inactive: 2.55%"}, {"smiles": "COCCn1c(SCC(=O)c2ccc3c(c2)OCCO3)nnc1C(C)C", "Potency": "inconclusive [activator, partial curve, poor fit]"}]}]}
